# Laboratory results reported in PMC4336329 (PLoS ONE, 2015).
# Screen size: about 310,000 compounds; about 2,200 (0.71%) showed an effect of 50% or more. Effects have a minus sign here. The list shows a part of the results.
# Target: human ether-à-go-go-related gene (hERG) potassium channel (human, UniProt Q12809)
# Experiment: primary screen, population patch clamp on CHO cells stably expressing hERG
# human ether-à-go-go-related gene (hERG) potassium channel, sequence (Q12809 whole entry, looked up): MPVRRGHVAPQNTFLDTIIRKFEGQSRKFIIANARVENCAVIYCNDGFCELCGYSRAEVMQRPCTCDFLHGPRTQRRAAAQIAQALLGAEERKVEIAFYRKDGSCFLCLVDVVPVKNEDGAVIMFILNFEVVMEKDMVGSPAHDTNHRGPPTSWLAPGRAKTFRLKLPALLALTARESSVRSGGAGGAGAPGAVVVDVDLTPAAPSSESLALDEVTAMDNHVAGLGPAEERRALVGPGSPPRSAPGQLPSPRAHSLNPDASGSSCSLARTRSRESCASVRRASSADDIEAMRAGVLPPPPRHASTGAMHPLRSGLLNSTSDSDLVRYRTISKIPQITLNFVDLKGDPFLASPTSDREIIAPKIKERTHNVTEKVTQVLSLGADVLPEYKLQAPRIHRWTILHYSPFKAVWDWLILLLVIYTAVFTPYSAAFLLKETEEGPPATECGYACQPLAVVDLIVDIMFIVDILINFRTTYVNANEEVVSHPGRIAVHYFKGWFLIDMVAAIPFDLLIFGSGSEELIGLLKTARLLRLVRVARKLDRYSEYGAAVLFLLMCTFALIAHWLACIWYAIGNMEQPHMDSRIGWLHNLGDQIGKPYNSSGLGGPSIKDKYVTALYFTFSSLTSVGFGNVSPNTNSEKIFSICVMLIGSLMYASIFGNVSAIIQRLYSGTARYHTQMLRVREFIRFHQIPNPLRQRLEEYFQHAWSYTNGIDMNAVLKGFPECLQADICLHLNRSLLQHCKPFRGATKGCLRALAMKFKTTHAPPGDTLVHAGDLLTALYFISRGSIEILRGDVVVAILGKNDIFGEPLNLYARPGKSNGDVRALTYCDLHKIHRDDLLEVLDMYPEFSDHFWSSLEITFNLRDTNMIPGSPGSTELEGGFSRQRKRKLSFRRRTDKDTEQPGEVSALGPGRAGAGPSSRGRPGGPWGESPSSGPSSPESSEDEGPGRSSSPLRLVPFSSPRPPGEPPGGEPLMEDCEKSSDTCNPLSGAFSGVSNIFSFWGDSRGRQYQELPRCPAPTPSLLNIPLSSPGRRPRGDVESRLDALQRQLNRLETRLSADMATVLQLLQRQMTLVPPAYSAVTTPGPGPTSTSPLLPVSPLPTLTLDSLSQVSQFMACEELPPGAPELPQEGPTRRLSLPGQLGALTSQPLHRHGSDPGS
row,Structure (SMILES),"hERG current change (%, negative = inhibition) at 1uM"
1,COc1ccc(CNCCSc2nnnn2C)c(OC)c1OC.Cl,13.2%
2,COc1ccc(CC(=O)OCC(=O)c2ccc(S(=O)(=O)N3CCCCC3)cc2)cc1,9.91%
3,CC1(C)OC(=O)C(=NNc2ccccc2[N+](=O)[O-])C(=O)O1,3.74%
4,Cn1ncc(Cl)c1C(=O)N1CCN(c2cccc(Cl)c2)CC1,-1.96%
5,COc1ccccc1OCc1nnc(SCCN2CCOCC2)o1.O=C(O)C(=O)O,4.4%
6,CCc1ccc(-c2nc(SCC(=O)N3CCOCC3)n[nH]2)cc1,-2.43%
7,Cn1cccc1/C=C(/C#N)c1ccc(F)cc1,6.81%
8,CCCCCN1C(C)=CC(=C(C#N)C#N)C=C1C,22.4%
9,c1ccc(-c2nc(N3CCCC3)nc3ccccc23)cc1,14.7%
10,CC(C)C(=O)N1CCC(c2nc(-c3ccc(S(=O)(=O)N4CCN(C)CC4)cc3)no2)CC1,13.8%
11,CC(C)CNC(=O)COC(=O)CCC(=O)c1cccs1,15.7%
12,COc1ccccc1-n1cc(C(=O)NCC(=O)NCc2ccc(F)cc2)c2ccccc2c1=O,9%
13,CCOC(=O)c1cc2sc(C)cc2n1C(C)C(=O)OCC (stereo not drawn),2.66%
14,CCCn1c(SCC(=O)NC(C)(C)C)nnc1C(C)C,8.04%
15,COCC(=O)Nc1cc(C)cn(Cc2ccccc2Cl)c1=O,15.1%
16,O=[N+]([O-])c1cccc(/C=N/NC2=NS(=O)(=O)c3ccccc32)c1,14.2%
17,CC(C)OC(=O)c1cccc(NC(=O)CSc2nnc(N)s2)c1,4.13%
18,Cc1nc2ncccn2c1-c1csc(Nc2ccccc2)n1,-7.85%
19,CCOC(=O)C1=C(c2ccccc2)OC(N)=C(C#N)C1C(C)C (stereo not drawn),-15.5%
20,COc1ccc(CCNC(=O)COC(=O)CSc2ccc([N+](=O)[O-])cc2)cc1OC,4.89%
21,Cc1ccccc1NC(=O)CSc1cn[nH]n1,15.8%
22,Cc1ccc(-c2noc(CN3CCC(C(N)=O)CC3)n2)cc1,15.7%
23,COc1cc(/C=C/C(=O)OCC(=O)NC(=O)NC(C)C)ccc1OCC#N,6.42%

row,Structure (SMILES),"hERG current change (%, negative = inhibition) at 1uM"
1,COc1cccc(NC(=O)c2ccn(C)n2)c1,11.4%
2,COc1ccc(S(=O)(=O)N2CCC(C(=O)N3CCc4ccccc4C3)CC2)cc1OC,-8.72%
3,CCN(CC(=O)Nc1ccc2c(c1)OCCO2)C(=O)/C=C/c1ccccc1,17.1%
4,CCCc1ncc(C(O)c2ccccc2OC)n1C (stereo not drawn),10.6%
5,O=C(N/C(=C/c1ccc(Cl)cc1)C(=O)N1CCCCC1)c1ccco1,-0.117%
6,Nc1c(/C=C2\C=Nc3ccccc32)c(=O)nc2sc(CC(=O)N3CCOCC3)nn12,22.7%
7,C=CCN1C(=O)C2C(C(=O)NC3CCCC3)C3C=CC2(O3)C1C(=O)NC1CCCC1 (stereo not drawn),20.5%
8,O=C(CSC1=NCCS1)Nc1ccc(S(=O)(=O)NC2CCCCC2)cc1,2.13%
9,CN(CC(=O)Nc1cccc(F)c1)C(=O)c1cc(S(=O)(=O)N2CCCCC2)ccc1N1CCOCC1,3.68%
10,Cc1cc(F)ccc1S(=O)(=O)N1CCCOC1CNC(=O)C(=O)NCc1cccnc1 (stereo not drawn),12.6%
11,O=c1cc(COc2ncnc3ccccc23)nc2sccn12,0.661%
12,Cc1nc2cc(NC(=O)N(C)c3ccc4ccccc4c3)ccc2o1,11.4%
13,CN(CC(=O)NCc1ccccn1)S(=O)(=O)c1ccc2ccccc2c1,3.54%
14,Cc1ccc2cc(CN(CCO)Cc3nnnn3Cc3ccc(F)cc3)c(=O)[nH]c2c1,4.89%
15,O=C(CC(=O)N/N=C\c1ccccc1[N+](=O)[O-])NCCc1ccccc1,13.2%
16,COc1ccc(Cl)cc1C(=O)OCC(=O)NCCNC(=O)COC(=O)c1cc(Cl)ccc1OC,-24.8%
17,CCCCC(=O)N/N=C/c1c(O)n(-c2ccccc2)c(=O)[nH]c1=O,18.1%
18,Cc1cccc(Oc2ccc3c(c2)cc(C(=O)O)n3C)c1,7.28%
19,O=C(NCC(=O)N1CCC2(CC1)NCCc1[nH]cnc12)c1ccc2ccccc2c1,9.87%
20,CCN(CC)c1c([N+](=O)[O-])ncn1C,3.02%
21,Cc1cccc(-n2c(C)cc(C(=S)N3CCOCC3)c2C)c1C,-3.05%
22,COC(=O)Nc1csc2c1NC(=O)CCCC2,14.9%
23,Cc1ccccc1N1CC(C(=O)Nc2nnc(SCC(=O)Nc3nccs3)s2)CC1=O (stereo not drawn),7.82%

row,Structure (SMILES),"hERG current change (%, negative = inhibition) at 1uM"
1,Cc1cc(N/N=C/c2ccc(O)cc2O)c2ccccc2n1,12.2%
2,COc1ccc(CCNc2ccc(C(CC(N)=O)NC(=O)Cc3ccc(Br)cc3)cc2[N+](=O)[O-])cc1 (stereo not drawn),7.54%
3,CCOc1ccc2nc(-c3ccccc3)nc(SCC(=O)Nc3ncc(C)s3)c2c1,3.51%
4,CS(=O)(=O)NCc1nnc(SCc2c(F)cccc2Cl)o1,-1.52%
5,Cc1noc(C)c1S(=O)(=O)Nc1ccc(C(=O)NCCc2ccccc2)cc1,7.23%
6,COc1ccc(N2CCN(C(=O)NCc3ccc(OC)c(Cl)c3)CC2)cc1,2.4%
7,Cc1ccc(N2C(=O)N(CC(=O)Nc3cc(C)cc(C)c3)C(=O)C2C)cc1 (stereo not drawn),22.3%
8,COC(=O)c1ccc(COc2ccccc2/C=N/NC(N)=O)o1,11%
9,Cc1ccc(C2CC(=O)C=C(Nc3ccc(Cl)cc3)C2)cc1 (stereo not drawn),10.4%
10,CN1CCN(S(=O)(=O)c2cccc(C(=O)O)c2)CC1,13.5%
11,CCN(CC(=O)Nc1ccc2c(c1)OCCO2)C(=O)CCc1ccccc1Cl,-1.51%
12,CN(C)c1ccc(/C=N/NC(N)=S)cc1[N+](=O)[O-],7.7%
13,COc1ccc(-c2cc(-c3ccc(Cl)cc3)c(C#N)c(SCC(=O)O)n2)cc1,3.81%
14,CCc1nc(SCC(=O)N2CCCCC2)c2c(=O)n(C)c(=O)n(C)c2n1,3.91%
15,CCN(CC)c1ccc(-c2nn3c(-c4n[nH]c5c4CCC5)nnc3s2)cc1,9.19%
16,O=C(c1ccc(Br)o1)N1CCN(Cc2ccccc2Cl)CC1,13%
17,CC1(C)Cc2c(c(N3CCOCC3)nc3sc(C(=O)Nc4cccc(Cl)c4)c(N)c23)CO1,12.4%
18,Clc1cc(Br)ccc1OCCOCCOc1cccc2cccnc12,10%
19,COc1ccc(C2=NN(CC(=O)NCC(OC)OC)C(=O)CC2)cc1,4.65%
20,CC(=O)Nc1ccc(OCCOc2ccccc2C(C)=O)cc1,7.99%
21,Cc1[nH]c2ccccc2c1C(=O)C(=O)NCc1cccs1,2.73%
22,Nc1n[nH]c2ccccc12,14.4%
23,CN1CCN(C(=O)c2cc(COc3c(F)cccc3F)on2)CC1c1ccccc1 (stereo not drawn),-2.64%

row,Structure (SMILES),"hERG current change (%, negative = inhibition) at 1uM"
1,Cc1cccc(NC(=O)CCN2C(=O)c3cccc([N+](=O)[O-])c3C2=O)c1,17.1%
2,Cc1ccc(C(=O)Nc2ccc(N3CCCC3)cc2)cc1,9.07%
3,C/C(=N\N1CCCCCC1)c1c(O)n(C)c(=O)n(C)c1=O,12.3%
4,CC(Oc1ccc(/C=N/NC(=O)Cc2cccc3ccccc23)cc1)C(=O)O (stereo not drawn),-1.66%
5,COCCCNC(=O)Cc1coc2ccc3ccccc3c12,18.2%
6,CC(=O)NC1(c2ccccc2)CCN(Cc2nnnn2C(C)(C)C)CC1,10%
7,Cc1cc(C)nc(N2CCC(C(=O)NC3CCCCCC3)CC2)n1,0.0346%
8,C=CCNC(=S)NC(CC(=O)OC)c1ccc2c(c1)OCO2 (stereo not drawn),8.6%
9,Cc1cccc(N2CCN(C3CCCCC3NS(=O)(=O)c3ccccc3)CC2C)c1 (stereo not drawn),14.4%
10,CC(C)CC(OC(=O)c1cccs1)C(=O)NCc1cccs1 (stereo not drawn),12.1%
11,CCN(CC)S(=O)(=O)c1cccc(NC(=S)NC(=O)/C=C/c2ccc(S(=O)(=O)N3CCOCC3)cc2)c1,5.39%
12,O=C(NNC1=NS(=O)(=O)c2ccccc21)c1ccccc1Cl,12.1%
13,CCN(CC)C(=O)N1CCn2c(nc3ccccc32)C1,9.48%
14,CCc1nnc(SCC(=O)Nc2ccc3c(c2)OCO3)n1CC,9%
15,O=C(NCC1c2ccccc2CCN1C(=O)CN1C(=O)c2ccccc2C1=O)C1CCCCC1 (stereo not drawn),7.49%
16,CCOC(=O)C1CCCN(C(=O)c2ccc(S(=O)(=O)Nc3ccccc3OC)cc2)C1 (stereo not drawn),4.06%
17,Cc1ccnn1CCC(=O)N1CCCC(N2CCN(c3cccc(Cl)c3)CC2)C1 (stereo not drawn),-3.74%
18,COCCCNC(=O)C1CCC(CNS(=O)(=O)c2ccc(C)cc2)CC1 (stereo not drawn),12.3%
19,CCCCC(NC(C)=O)c1nc2ccccc2n1CCCC (stereo not drawn),14.5%
20,Cc1oc(-c2ccc(Cl)cc2)nc1CS(=O)CC(=O)NC1CCCCC1 (stereo not drawn),13.3%
21,CCOC(=O)C1=C(CS(=O)(=O)c2ccccc2)NC(=O)NC1c1ccccc1OCC (stereo not drawn),4.4%
